Out of some 45,000 compounds screened, about 200 (0.44%) were called active. Not shown: some 7% with an inconclusive outcome. The call rests on the fitted dose curve; in most records, active means well fitted activation curve with a large enough effect; inconclusive means small, poorly fitted or top-dose-only effect; inactive means no such curve, though single readings can be large or run the other way. The list shows a part of the results.

The assay can be described thus: qHTS of TDP-43 Inhibitors: NCGC Sytravon Library Screen. Further: 0% is about no effect; nearly all actives have a fitted effect of over 55% in size. Conditions: yeast TDP-43 toxicity rescue, BacTiter-Glo growth, 24 h; series mostly up to 46.1 µM; growth rescue (activation): at the top concentration. Put shortly: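 TDP-43-expressing yeast, pregrown in raffinose, seeded at OD600 0.02 in galactose medium with compound for 24 hr at 30 deg C. Growth read by BacTiter-Glo luminescence, so rescue of toxicity appears as activation.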
A general note: qHTS replaces the single test concentration by a dilution series.
On to `O=C(NNC(=O)c1ccncc1)Nc1ccc([N+](=O)[O-])cc1`, for which the “growth rescue (activation)” value was inactive: 17.3%. As for `COc1ccnc(Oc2cc(Cl)cc(Cl)c2)c1C#N`, the “growth rescue (activation)” value is inactive: 18.2%. Then `CN(C(=O)c1cccc(C#N)c1)c1nnc(-c2ccncc2)s1`, with inactive: -3.3%; and `Cc1ccc(CSCCNS(=O)(=O)c2ccccc2)cc1`, with inactive: 28.3%. `COc1cc(NC(=O)C/C(C)=N/NC(=O)c2cccs2)c(OC)cc1Cl`: the “growth rescue (activation)” value was inactive: 15.2%. Then `Cc1ccc(Nc2cc(C)nc(N3CCOCC3)n2)c(C)c1`, with inactive: 4.42%. Then `Cc1ccc(-c2c(C)sc3ncn(CC(=O)N4CCOCC4)c(=O)c23)cc1C`, with inactive: 12.1%; and `CCOC(=O)C1CCN(C(=O)CC2(CC(=O)O)CCCC2)CC1`, with inactive: 5.2%. Consider `COc1cc(/C=C(/NC(C)=O)C(=O)O)cc(Cl)c1OCc1ccc(Br)cc1`, for which the “growth rescue (activation)” value was inactive: 7.59%. As for `O=C1c2ccc([N+](=O)[O-])cc2NC(c2ccco2)N1/N=C/c1ccco1` (centres undefined), the “growth rescue (activation)” value is inactive: 17.1%.

On to `Cc1ccc(NC(=O)CC(C)c2ccccc2)cc1S(=O)(=O)N1CCOCC1` (centres undefined), for which the “growth rescue (activation)” value was inactive: 14.3%. As for `CCCCSc1nnc2n(CCc3ccccc3)c(=O)c3c4c(sc3n12)COC(C)(C)C4`, the “growth rescue (activation)” value was inactive: -14.5%. In the case of `COc1ccc(NC(=S)N2CCN(c3ncccn3)CC2)cc1`, the “growth rescue (activation)” value is inactive: 18.3%. Turning to `COC(=O)c1cc(C(=O)Nc2ccc(Cl)cn2)cc([N+](=O)[O-])c1`, the “growth rescue (activation)” value was inactive: -0.113%.

`COc1ccc(/C=C/C(=O)NC2=NCCS2)cc1OC`: the “growth rescue (activation)” value was inactive: 14%. Then `O=C(Nc1ccnn1C1CCN(CC(O)CO)CC1)C1CCCC1` (centres undefined), with inactive: 16%; and `O=C1CN(C(=O)COC(=O)CCc2ccccc2)c2ccccc2N1`, with inactive: 9.59%.

Take `CC(C)CCn1nnnc1CN1CCN(C(=O)c2ccco2)CC1`: the “growth rescue (activation)” value was inactive: -15.9%. For `O=C(CN(C(=O)c1csnn1)c1ccccc1F)NC1CCCCC1`, the “growth rescue (activation)” value is inactive: 7.71%. The result for `O=C(O)c1csc(-c2cccs2)n1` reads inactive: 3%; that for `Cc1c(NS(=O)(=O)c2cccc(C(=O)N3CCC(C)CC3)c2)c(=O)n(-c2ccccc2)n1C`, inactive: -2.13%; that for `CCNC(=O)COC(=O)/C=C/c1cccc(F)c1`, inactive: 11.5%. On to `Cn1ccsc1=NC(=O)c1ccc(S(=O)(=O)C(F)F)cc1`, for which the “growth rescue (activation)” value is inactive: -3.28%. Then `Cc1ccc(O)c(-c2cc(-c3ccccc3C)[nH]n2)c1`, with inactive: -91.3%; and `Cc1ccc(NC(=O)CCC(=O)OCC(=O)c2ccc(Oc3ccc([N+](=O)[O-])cc3)cc2)cc1`, with inactive: 17.3%.

Regarding `CCN(C(=O)COc1cccc(-n2cnnn2)c1)C1CCS(=O)(=O)C1` (centres undefined), the “growth rescue (activation)” value is inactive: 4.41%. Consider `CN(C)S(=O)(=O)c1cc(NC(=O)CN2CCc3ccccc32)ccc1Cl`, for which the “growth rescue (activation)” value is inactive: 3.52%. On to `COc1ccc(N(CC(=O)NCCc2ccccc2)C(=O)CCC(=O)Nc2nccs2)cc1`, for which the “growth rescue (activation)” value is inactive: 0.69%.

As for `COCCNCc1nc2sc(C)c(-c3ccccc3)c2c(=O)[nH]1`, the “growth rescue (activation)” value was inactive: -2.33%. Regarding `CSCCC(NC(=O)c1ccc(Cl)cc1Cl)C(=O)N(C)Cc1nc2ccccc2c(=O)[nH]1` (centres undefined), the “growth rescue (activation)” value is inactive: -17.8%. For the compound `OCCCc1n[nH]c(=S)n1-c1ccccc1`, the “growth rescue (activation)” value is inactive: -4.04%. For `CCc1nnc(NC(=O)c2ccc(-c3ccc([N+](=O)[O-])cc3Cl)o2)s1`, the “growth rescue (activation)” value was inactive: 3.57%. The result for `COc1ccc(/C=C(\C)c2nc(C)c(-c3ccccc3)c(=O)[nH]2)cc1` reads inactive: 10.6%; that for `CN1C(C(=O)Nc2ncccn2)=C(O)c2ccccc2S1(=O)=O`, inactive: 4.9e-05%. Then `Cc1nc2c(OCC(=O)c3ccc(F)cc3)cccn2c1N(C)Cc1cccs1`, with inactive: 3.19%; and `CCn1c(SCC(=O)Nc2nc(-c3ccccc3)cs2)nc2c1c(=O)n(C)c(=O)n2C`, with inactive: 18%. The result for `COc1ccc(N2C(=O)C(F)(F)C2c2cccc(F)c2)cc1` (centres undefined) reads inactive: 16.3%; that for `Cc1ccc(C(O)c2ncc(-c3cccc(F)c3)[nH]2)cc1` (centres undefined), inactive: 11.6%; that for `O=C(O)COc1ccccc1/C=N/NC(=O)/C(=C\c1ccc2c(c1)OCO2)NC(=O)c1ccccc1`, inactive: -3.6%. In the case of `O=C(N/N=C/c1ccc2c(c1)OCO2)c1cccc2ccccc12`, the “growth rescue (activation)” value is inactive: 10.7%.

On to `COc1ccc(/C=C/C(=O)NCCc2ccc(S(N)(=O)=O)cc2)cc1`, for which the “growth rescue (activation)” value was inactive: 24%. The result for `CCOc1ccccc1C(=O)N[C@H](C(=O)Nc1cc(S(=O)(=O)N(C)C)ccc1OC)C(C)C` reads inactive: 4.62%; that for `COCCNC(=O)c1ccc2c(c1)CCN2S(C)(=O)=O`, inactive: -0.421%. With `Cc1cccc(NC(=O)CSc2nnc(CNC(=O)c3ccco3)n2C)c1C`, the “growth rescue (activation)” value is inactive: 0.507%. Turning to `O=C(NCCCNC(=O)c1ccccc1F)c1ccco1`, the “growth rescue (activation)” value is inactive: -2.34%. Then `CSc1ncccc1C(=O)Nc1ccc(S(=O)(=O)NC2=NCCCCC2)cc1`, with inactive: 4.04%. The result for `COC(=O)/C(C#N)=C/c1c(Oc2cccc(C)c2)nc2ccccn2c1=O` reads inactive: 12.5%; that for `Cc1nc(SCC(=O)NCCc2ccccc2)nc(C)c1C`, inactive: -23.1%.

With `CC(=O)N1CCN(c2ccc([N+](=O)[O-])cc2)CC1`, the “growth rescue (activation)” value was inactive: 16.5%. Then `Clc1cccc(-c2cccc3nccn23)c1`, with inactive: 1.14%; and `Cc1ccc(-c2cnc(C(O)c3ccc(Cl)c(F)c3)[nH]2)cc1` (centres undefined), with inactive: 16.8%. Take `COc1ccccc1C(=O)NCC(=O)Nc1ccc2c(c1)OCO2`: the “growth rescue (activation)” value is inactive: 20.1%. Then `O=C(NCCCCNC(=O)C(F)(F)F)C(F)(F)F`, with inactive: -1.49%.

Regarding `O=C(CNc1ccc(Br)cc1)c1ccc(Br)s1`, the “growth rescue (activation)” value was inactive: 29.7%. In the case of `CC(=O)c1c(C)nc(-c2ccc3c(c2)OCO3)n1O`, the “growth rescue (activation)” value was inactive: 16.2%. The result for `CCOc1nc(NC(=O)NS(=O)(=O)Oc2cccc(Cl)c2)nc(-c2ccccc2)n1` reads inactive: -2.33%; that for `O=C(Oc1ccc2c(c1)O/C(=C\c1ccncc1)C2=O)c1cccs1`, inactive: -7.8%; that for `COC(=O)C1=CNC=C(C(=O)OC)C1c1cccc2ccccc12`, inactive: 3.25%. Then `CCc1ccc(S(=O)(=O)/N=C2/C=C(Sc3ncn[nH]3)C(=O)c3ccccc32)cc1`, with inactive: -92.5%; and `Cc1ccc(C)c(NC(=O)COC(=O)CCCN=C2NS(=O)(=O)c3ccccc32)c1`, with inactive: 1.97%. Then `Cc1cccc(NC(=O)Cn2c(=O)oc3ccccc32)c1C`, with inactive: 3.2%; and `O=Cc1cn(CCC(=O)O)nc1-c1cccc2ccccc12`, with inactive: 23%; and `COc1ccccc1N1CCN(C(=O)c2ccc(N(C)S(=O)(=O)c3ccccc3)cc2)CC1`, with inactive: 16.9%.

`CC(=O)Oc1ccc(/C=N/NS(=O)(=O)c2ccccc2)cc1`: the “growth rescue (activation)” value was inactive: 33.7%. Turning to `COc1ccc(N2CC(C(=O)Nc3ccc(S(=O)(=O)N4CCOCC4)cc3)CC2=O)cc1` (centres undefined), the “growth rescue (activation)” value is inactive: 8.19%. The result for `NC(=O)NC(=O)COC(=O)c1ccc(Cl)c(S(=O)(=O)N(Cc2ccccc2)c2ccc(Cl)cc2)c1` reads inactive: 17.8%; that for `COc1ccc(C2=NC3(CCCCCC3)N(CC(=O)Nc3cccc(Cl)c3)C2=O)cc1`, inactive: 1.94%; that for `COc1ccc(CNC(=O)C23CC4CC(CC(Br)(C4)C2)C3)cc1`, inactive: 5.43%. Take `CCCC(c1nnnn1Cc1ccc(F)cc1)N1CCN(C)CC1` (centres undefined): the “growth rescue (activation)” value was inactive: 11.2%. As for `Cc1cccc(NC(=O)/C(=C\c2ccc([N+](=O)[O-])o2)NC(=O)c2ccc(Cl)cc2)c1`, the “growth rescue (activation)” value is inactive: 16.7%. Then `Cc1onc(-c2c(F)cccc2Cl)c1C(=O)OCC(=O)c1c[nH]c2ccccc12`, with inactive: 6.83%; and `Cc1ccnc(SCc2ccc([N+](=O)[O-])cc2)n1`, with inactive: 38.8%; and `CCn1ncc(-c2ccnc3cc(C(=O)O)nn23)c1C`, with inactive: 11.5%.

As for `O=C(C1CCN(S(=O)(=O)c2c(Cl)cccc2Cl)CC1)N1CCCC1`, the “growth rescue (activation)” value is inactive: 0.368%. Then `COc1cccc(CCC(=O)O)c1OC`, with inactive: 15.2%; and `Cc1cc(NC(=O)C23CC4CC(CC(C4)C2)C3)n[nH]1`, with inactive: 17.8%; and `Cc1ccc(S(=O)(=O)N2CCN(CC(=O)Nc3ccccc3C(=O)NC3CC3)CC2)cc1`, with inactive: 21.5%. As to `CN(C)CCNC(=O)c1cccc(-c2cccc3nccn23)c1`, the “growth rescue (activation)” value is inactive: 3.36%. The result for `N#Cc1ccc(/C=C2\CCCCn3c2nc2cc(C(=O)O)ccc2c3=O)cc1` reads inactive: -3.96%; that for `CN(C)S(=O)(=O)c1ccc(NC(=O)CN2CCN(c3ccccn3)CC2)cc1`, inactive: -1.86%; that for `CCn1c(SCC(=O)Nc2nc(C)cs2)nnc1-c1ccncc1`, inactive: 16.7%. Regarding `CC(=O)Nc1ccccc1OCC(=O)NCCC1=CCCCC1`, the “growth rescue (activation)” value was inactive: 1.97%. Then `CNC(=S)Nc1cccc(C(=O)O)c1`, with inactive: -2.77%; and `Cc1ccc(-c2c3c(=O)n(C)c(=O)n(C)c3cn2-n2cnnc2)cc1`, with inactive: -0.44%; and `O=c1c2c(nc3cc(-c4ccc(Cl)cc4)[nH]n13)CCS2`, with inactive: 6.35%. Then `CCn1c(SCc2ccccc2)nnc1C1CCCCC1`, with inactive: 34%. Take `CCOC(=O)c1c(/N=C/N(C)C)sc(/C=N/Nc2ccccc2)c1-c1ccccc1Cl`: the “growth rescue (activation)” value was inactive: 5.28%. The result for `CCOC(=O)C(NC(=O)c1ccccc1F)(Nc1cc(C)on1)C(F)(F)F` (centres undefined) reads inactive: 7.58%; that for `Cc1ccc(C2=NN(CC(=O)NCc3ccco3)C(=O)CC2)cc1`, inactive: 23.5%; that for `CC(C)CNC(=S)N1CCC(NC(=O)c2ccco2)CC1`, inactive: 10.5%.

For the compound `COc1ccccc1NC(=O)Cc1nnc(SCC(=O)NC2=NCCS2)n1C`, the “growth rescue (activation)” value was inactive: -14.7%.

In the case of `COC(=O)c1ccc(CN(c2ccccc2Cl)S(C)(=O)=O)cc1`, the “growth rescue (activation)” value was inactive: 29.1%.

Consider `CN(C)S(=O)(=O)c1ccc(NC(=O)Cn2nc(-c3ccc4c(c3)OCCO4)ccc2=O)cc1`, for which the “growth rescue (activation)” value is inactive: 8.76%. Consider `Cc1cc(C)cc(OCCNC(=O)C2CCN(S(=O)(=O)c3ccccc3)CC2)c1`, for which the “growth rescue (activation)” value was inactive: 7.51%. The result for `COc1cc(NC(=O)C2(C)CCCN2C(=O)C(C)C)cc(OC)c1OC` (centres undefined) reads inactive: 5.38%; that for `COc1ccc(C(=O)NNC(=O)CSc2nnc(C(C)C)n2C)cc1`, inactive: -5.87%. Then `COc1ccc2c(CC#N)c[nH]c2c1`, with inactive: 17.6%; and `CCC1CCCCN1C(=O)c1cc2c(=O)n3cccc(C)c3nc2s1` (centres undefined), with inactive: -1.46%.

With `O=C(NS(=O)(=O)Oc1ccc(Cl)cc1)OC[C@@H]1CCCN2CCCC[C@H]12`, the “growth rescue (activation)” value was inactive: 23.5%.

For `Cc1ccccc1C(=O)Nc1ccccc1N1CCCCC1`, the “growth rescue (activation)” value was inactive: 23.3%. For `COc1cc(C2C(C#N)=C(C)NC3=C2C(=O)CC(C)(C)C3)ccc1OCCO` (centres undefined), the “growth rescue (activation)” value was inactive: 14.6%. Then `CC1=NNC(=O)C1CCC(=O)N/N=C/c1ccco1` (centres undefined), with inactive: -6.85%; and `CCOc1ccc(C2/C(=C(\O)c3cccc(OC)c3)C(=O)C(=O)N2c2cc(C)on2)cc1OC` (centres undefined), with inactive: 15.6%; and `COCCn1cnc2c1c(=O)n(CC(=O)c1ccc3c(c1)OCCO3)c(=O)n2Cc1ccccc1`, with inactive: 7.38%. As to `CN(C)C(=S)NC(=O)C(c1ccccc1)c1ccccc1`, the “growth rescue (activation)” value was inactive: 1.79%. The result for `O=C1N/C(=C/c2cccs2)C(=O)N1Cc1ccccc1F` reads inactive: -6.82%; that for `O=C(CSc1ccccc1)Nc1nccs1`, inactive: 9.49%. For the compound `COc1ccc(NC(=O)c2cc(-c3ccc(F)cc3OC(C)C)n[nH]2)cn1`, the “growth rescue (activation)” value is inactive: 23.1%. Take `Cc1ccc(C(=O)OC(C(=O)Nc2ccc(Cl)cc2C(F)(F)F)c2ccccc2)cc1` (centres undefined): the “growth rescue (activation)” value was inactive: 1.18%.

These data come from PubChem BioAssay AID1347073 (National Center for Advancing Translational Sciences (NCATS), 2019).
